Experimental data as given in PubChem BioAssay AID1460 (National Center for Advancing Translational Sciences (NCATS), 2008).
The whole screen tested about 270,000 compounds, of which about 5,800 (2.1%) were called active. This list was built around the results that the source calls inconclusive (neither active nor inactive); the mix of calls is not that of the screen. The call rests on the fitted dose curve; in most records, active means well fitted inhibition curve with a large enough effect; inconclusive means small, poorly fitted or top-dose-only effect; inactive means flat fitted curve, though single readings scatter. Where the call is inconclusive, the potency comes from a doubtful curve fit.

The compounds below were run against Microtubule-associated protein tau (Homo sapiens) (UniProt P10636) (assay: qHTS for Inhibitors of Tau Fibril Formation, Thioflavin T Binding). Conditions: recombinant tau K18 P301L, heparin-induced fibrillization, ThT fluorescence; series mostly up to 57.4 µM; activity, negative = inhibition: at the top concentration.
Chain of UniProt P10636 (P10636 whole entry, looked up): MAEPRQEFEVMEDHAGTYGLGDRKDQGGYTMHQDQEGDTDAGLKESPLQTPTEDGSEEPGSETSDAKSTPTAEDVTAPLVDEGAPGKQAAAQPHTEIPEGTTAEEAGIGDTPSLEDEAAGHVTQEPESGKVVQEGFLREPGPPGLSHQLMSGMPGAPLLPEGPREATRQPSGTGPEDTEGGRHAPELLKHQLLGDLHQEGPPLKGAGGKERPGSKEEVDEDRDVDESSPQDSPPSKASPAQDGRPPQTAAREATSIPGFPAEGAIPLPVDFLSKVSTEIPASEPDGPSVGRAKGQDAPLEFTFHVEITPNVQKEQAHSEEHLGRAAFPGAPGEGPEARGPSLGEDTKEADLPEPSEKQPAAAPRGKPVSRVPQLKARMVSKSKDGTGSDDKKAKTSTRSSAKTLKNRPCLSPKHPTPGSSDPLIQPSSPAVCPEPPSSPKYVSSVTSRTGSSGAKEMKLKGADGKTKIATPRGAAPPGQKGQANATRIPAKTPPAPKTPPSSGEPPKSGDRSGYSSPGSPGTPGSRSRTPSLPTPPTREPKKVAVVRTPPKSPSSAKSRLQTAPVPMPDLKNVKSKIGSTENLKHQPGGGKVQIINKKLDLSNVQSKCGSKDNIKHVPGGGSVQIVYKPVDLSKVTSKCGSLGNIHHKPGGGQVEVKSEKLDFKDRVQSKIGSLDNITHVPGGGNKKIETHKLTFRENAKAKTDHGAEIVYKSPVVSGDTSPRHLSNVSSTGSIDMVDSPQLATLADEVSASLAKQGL
Summary of the method: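 Fibril formation assay: tau K18 P301L at 15 uM with trace Alexa 594 label, heparin inducer 20 uM, pH 7 sodium acetate buffer, 37 C for 6 hr; endpoint ThT signal.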
Further: nearly all actives have a fitted effect of over 55% in size.
On the % scale 0 is the no-effect control and ±100 the full control effect; potency means the concentration at half of the fitted maximal effect; tags describe the fitted curve by direction and shape.

Structure (SMILES) | Potency | activity, negative = inhibition
CCCN(CCC)CC(O)Cn1cc(/C=C/C(=O)c2cccs2)c2ccccc21 (centres undefined) | inconclusive: 25.1 µM [inhibitor, partial curve] | –
COc1cc(SC)ccc1C(=O)Nc1ccon1 | inconclusive: 39.8 µM [inhibitor, single point] | –
Cn1c(=O)[nH]c(=O)c2c1nc(N1CCN(c3cccc(Cl)c3)CC1)n2CCCc1ccccc1 | – | inactive: -3.73%
COC(=O)/C=C1\S/C(=N/N=C/c2ccccc2)NC1=O | inconclusive: 10 µM [inhibitor, partial curve] | –
Cc1[nH][nH]c(=O)c1C(c1ccc(-c2ccc(Cl)cc2)o1)c1c(C)[nH][nH]c1=O | active: 7.08 µM | –
Cc1cccc(NC(=O)c2ccc(OCC3CCCO3)cc2)c1C (centres undefined) | inconclusive: 10 µM [inhibitor, partial curve] | –
COc1cccc(CNC(=O)c2c(O)nc3ccccn3c2=O)c1 | – | inactive: 3.7%
C(=N\N1CCN(Cc2cccc3ccccc23)CC1)/c1ccco1 | inconclusive: 31.6 µM [inhibitor, partial curve, poor fit] | –
CCN(CCO)c1ccc(N=Nc2cc(C)[nH]n2)cc1 | active: 10 µM | –
COc1ccc(-c2cccc([C@H]3[C@@H]4C=CCC[C@@]4(C)C(=O)N3Cc3ccccc3)c2)cc1 | inconclusive: 15.8 µM [inhibitor, single point] | –
CCn1cc(C(=O)NC(=S)Nc2sc3c(c2C(=O)OC)CCCCCC3)cn1 | – | inactive: -0.941%
Cc1ccc2c(Cl)c(C(=O)Nc3ccc4c(c3)OCO4)sc2c1 | inconclusive: 2.51 µM [inhibitor, full curve] | –
Cn1c(C(=O)NCc2ccc3c(c2)OCO3)cc2sccc21 | inconclusive: 17.8 µM [inhibitor, single point] | –
O=C(Nc1cccnc1Cl)c1cc(-c2ccc(Cl)cc2)on1 | inconclusive: 0.224 µM [inhibitor, full curve] | –
O=C(CSc1ncnc2sc3c(c12)CCCC3)c1ccco1 | inconclusive: 28.2 µM [inhibitor, partial curve] | –
CSc1nc(Oc2ccccc2)c2sccc2n1 | inconclusive: 39.8 µM [inhibitor, partial curve] | –
C/C(=N/NC(=O)c1ccco1)c1cccc(NC(=O)c2ccc(C)o2)c1 | inconclusive: 11.2 µM [inhibitor, partial curve] | –
COc1cc(NC(=O)Cn2c(=O)n(C(C)C)c(=O)c3oc4ccccc4c32)cc(OC)c1 | – | inactive: 6.83%
CCOC(=O)c1c(C)[nH]c(C)c1C(=O)COc1ccc(NC(=O)c2ccco2)cc1 | inconclusive: 14.1 µM [inhibitor, partial curve] | –
CCNC(=S)N/N=C(\C)c1cccc([N+](=O)[O-])c1 | – | inactive: -2.79%
Cc1cnc(Nc2nc3ccccc3o2)nc1C(=O)Nc1cccc(C(F)(F)F)c1 | inconclusive: 2.82 µM [inhibitor, full curve] | –
COc1cc(C)c(C)cc1S(=O)(=O)N1CCN(Cc2ccccc2)CC1 | inconclusive: 31.6 µM [inhibitor, single point] | –

Structure (SMILES) | Potency | activity, negative = inhibition
Cc1sc2nc(CSCC(=O)Nc3ccccc3C#N)[nH]c(=O)c2c1C | inconclusive: 35.5 µM [inhibitor, single point] | –
CCOC(=O)C1=C(C)N(c2ccccc2)C(=O)C1CC(=O)O (centres undefined) | inconclusive: 39.8 µM [inhibitor, single point] | –
CC(=O)c1ccc(N2CCN(CC(O)COCc3ccco3)CC2)cc1 (centres undefined) | inconclusive: 15.8 µM [inhibitor, partial curve] | –
Cc1c(NC(=S)N/N=C/c2cc([N+](=O)[O-])ccc2O)c(=O)n(-c2ccccc2)n1C | active: 31.6 µM | –
Cc1cccc(C)c1-n1c(C)cc(/C=C2\NC(=O)NC2=O)c1C | – | inactive: -0.712%
O=C(c1ccccc1)N1CCN(c2ccc([N+](=O)[O-])c(NCc3ccco3)c2)CC1 | inconclusive: 15.8 µM [inhibitor, partial curve] | –
CCCCN(CC)CCCNC(=O)CC1Oc2ccccc2NC1=O (centres undefined) | – | inactive: -14.6%
CC(C)c1cccc2nc3c(c([Si](C)(C)C)c12)Cn1c-3cccc1=O | inconclusive: 31.6 µM [inhibitor, single point] | –
COC(=O)/C(Cc1cc(Br)c(OC)c(Br)c1O)=N/O | – | inactive: -2.86%
O=C(CCCSc1nc(-c2ccco2)cc(C(F)(F)F)n1)Nc1ccc2c(c1)OCO2 | inconclusive: 10 µM [inhibitor, partial curve] | –
CCC(=O)Nc1nonc1-c1nc2ccccc2n1N(C(=O)CC)C(=O)CC | inconclusive: 31.6 µM [inhibitor, single point] | –
N/C(=N\OC(=O)c1ccc2c(c1)OCO2)c1ccc(Cl)cc1 | inconclusive: 2.24 µM [inhibitor, full curve] | –
CC(C)n1c(=S)[nH]c2c1c(=O)[nH]c(=O)n2C | inconclusive: 39.8 µM [inhibitor, single point] | –
CCCCC1(C)NC(=O)c2c(C)sc(C(=O)OCC)c2N1 (centres undefined) | inconclusive: 5.01 µM [inhibitor, full curve] | –
CC(=O)c1ccc(NC(=O)CCc2c(C)nn(-c3ccc4nncn4n3)c2C)cc1 | – | inactive: -5.19%
CC(C)c1ccc(C(=O)Nc2cccc3cccnc23)cc1 | inconclusive: 12.6 µM [inhibitor, partial curve] | –
CCCc1cc(C(=O)N2CCN(C(c3ccccc3)c3ccccc3)CC2)no1 | inconclusive: 31.6 µM [inhibitor, partial curve, poor fit] | –
O=C1C(c2ccc(F)cc2)N(CCc2ccccc2)C(=O)CN1C1CCCCC1 (centres undefined) | – | inactive: -1.47%
COCCOC(=O)C(C#N)c1nc2ccccc2nc1N1CCN(Cc2ccccc2)CC1 (centres undefined) | inconclusive: 12.6 µM [inhibitor, partial curve] | –
Cc1ccccc1C(=O)Nc1nnc(SCc2cc(=O)c3c(C)ccc(C)c3[nH]2)s1 | inconclusive: 3.16 µM [inhibitor, single point] | –
CC(c1ccccc1)N1CCn2c(nc3cc(NC(=O)c4cccs4)ccc32)C1 (centres undefined) | inconclusive: 17.8 µM [inhibitor, partial curve] | –
N/C(=N\NC(=O)c1ccccc1)c1cc2ccccc2oc1=O | inconclusive: 15.8 µM [inhibitor, partial curve] | –
